# Laboratory results taken from paper PMC6919601, “Identification of Plasmodium dipeptidyl aminopeptidase allosteric inhibitors by high throughput screening” (PLoS ONE, 2019).
# Among all 110,000 compounds or so, about 230 (0.21%) showed an effect of 50% or more. The list shows a part of the results.
# Biological target: DPAP1 (Plasmodium falciparum, UniProt Q8IIJ9)
# Assay: primary screen, percent inhibition; read by cleavage of a fluorogenic dipeptide substrate; higher = more effect of the substance
# Parameters: species or system P. falciparum D10 trophozoite lysates; single well
# 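Also: 30 min substrate incubation versus DMSO and 10 µM JCP410 controls.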
# Chain of DPAP1 (Q8IIJ9 whole entry, looked up): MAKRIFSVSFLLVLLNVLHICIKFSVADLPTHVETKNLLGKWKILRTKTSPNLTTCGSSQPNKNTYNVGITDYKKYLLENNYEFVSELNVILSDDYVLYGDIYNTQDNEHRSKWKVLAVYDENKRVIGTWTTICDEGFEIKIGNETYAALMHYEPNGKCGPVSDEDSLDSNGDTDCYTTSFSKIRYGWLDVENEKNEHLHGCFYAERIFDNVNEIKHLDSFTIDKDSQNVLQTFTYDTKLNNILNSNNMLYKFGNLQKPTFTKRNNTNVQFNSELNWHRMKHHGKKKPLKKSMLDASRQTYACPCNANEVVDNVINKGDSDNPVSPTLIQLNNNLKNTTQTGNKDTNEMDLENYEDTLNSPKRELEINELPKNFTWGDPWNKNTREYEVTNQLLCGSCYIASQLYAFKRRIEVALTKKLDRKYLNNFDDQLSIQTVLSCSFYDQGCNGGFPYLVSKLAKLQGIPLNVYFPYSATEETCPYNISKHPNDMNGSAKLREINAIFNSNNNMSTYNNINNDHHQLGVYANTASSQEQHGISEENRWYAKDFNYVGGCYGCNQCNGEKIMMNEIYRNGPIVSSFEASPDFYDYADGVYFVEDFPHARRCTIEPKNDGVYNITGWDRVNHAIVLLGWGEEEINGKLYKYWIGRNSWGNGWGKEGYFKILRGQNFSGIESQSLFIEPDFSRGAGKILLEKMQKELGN
row,SMILES,% Inhibition @ 10 uM [%]
1,Cc1cc(Br)ccc1OCC(=O)Nc1ccc(S(=O)(=O)N2CCCCCC2)cc1,1.62
2,COc1cc(/C=C2/C(=N)N3OC(C)=CC3=NC2=O)cc(Cl)c1OCCOc1cc(C)cc(C)c1,3.63
3,Cc1cc(C)cc(-n2nnc(-c3nc(-c4cccs4)no3)c2N)c1,3.22
4,COc1ccc(/C=C/C(=O)NCc2ccco2)cc1,-6.06
5,CC1(C)CC(=O)C(/C=N/CCN2CCN(CC(=O)Nc3cc(Cl)cc(Cl)c3)CC2)=C(O)C1,0.722
6,Cc1c(C(c2ccc(Cl)cc2)c2c(C)n(C)n(-c3ccccc3)c2=O)c(=O)n(-c2ccccc2)n1C,-4.87
7,Nc1ncnc(N2CCOCC2)c1[N+](=O)[O-],-8.51
8,Cc1cc(=O)oc(C)c1C(=O)NCc1c(F)cc(F)cc1F,-0.519
9,Cn1c(=O)c2c(nc(NCCc3ccccc3)n2Cc2ccccc2F)n(C)c1=O,0.0289
10,CCc1c(CCC(C)=O)oc2ccc(C)cc12,0.132
11,O=C(O)c1ccc(N2C(=O)c3cccc4cc(Br)cc(c34)C2=O)cc1,-3.69
12,CCCCCNc1nc(S)nc2cc(OC)c(OC)cc12,0.708
13,CC(=O)N1CCN(CC(O)COc2ccc(Br)cc2)CC1 (centres unmarked),-3.18
14,Cc1ccc(C2N3CCCN23)cc1 (centres unmarked),-2.88
15,CCOc1ccc(C(=O)Nc2nc(-c3ccccc3)c(C)s2)cc1,-1.02
16,CSc1ccc(CN2CCN(Cc3ccc4c(c3)OCO4)CC2)cc1,0.847
17,COCc1cc(C)nc(SCC(=O)NCc2ccccc2)c1C#N,4.09
18,Cc1cccc(OCCn2c(C3CCCO3)nc3ccccc32)c1 (centres unmarked),-2.99
19,CCN(CC)C(=O)C1CCCN(Cc2ccc([N+](=O)[O-])cc2)C1 (centres unmarked),-0.0404
20,O=C(Nc1ccc2c(c1)OCO2)c1cc2nc(-c3ccc4c(c3)OCO4)cc(C(F)(F)F)n2n1,-2.29
21,COc1cc(OC)cc(C(=O)Nc2nc(-c3nnn(-c4cc(Cl)ccc4C)c3C)ns2)c1,-5.86
22,CCC(=O)NS(=O)(=O)c1cc(Nc2cccc(Cl)c2Cl)ccn1,-3.92
23,CC1=[N+](C)C(C)(C)Cc2ccccc21,1.12
24,COc1cc2cc(C(=O)O)[nH]c2c2c1OCCC2=O,-2.29
25,COc1ccc(OCC(=O)Nc2cccnc2Cl)cc1,1.89

row,SMILES,% Inhibition @ 10 uM [%]
1,CC(=O)Nc1ccc(NC(=O)C2CCN(S(=O)(=O)c3ccc(C)cc3)CC2)cc1,2.17
2,Cc1nn(Cc2cccc(F)c2)c(C)c1NC(=O)c1c(Cl)cnn1C,-7.4
3,CCCCC1CCC(C(=O)Nc2nc3ccccc3n2C)CC1 (centres unmarked),0.98
4,O=C(NC(=O)c1cccs1)Nc1nc(-c2ccc(F)cc2)cc(C(F)(F)F)n1,-4.42
5,COc1cccc(-c2cc(C(=O)N(C)C3CCCCC3)[nH]n2)c1,-0.537
6,CCOc1cc(C2NC(=O)c3c(sc4c3CCCC4)N2)ccc1O (centres unmarked),10.2
7,COc1ccc(OC)c(NS(=O)(=O)c2ccc3ccccc3c2)c1,6.1
8,Cc1c(C(=O)N2CCCCC2)sc(NC(=O)c2ccc(F)cc2)c1C#N,-4.49
9,CN1/C(=C\C(=O)Nc2ccc(Cl)cc2)c2ccccc2CC1(C)C,-4.98
10,CCn1c(C(=O)NCCC(C)C)cc2oc3ccccc3c21,-2.17
11,Nc1ccc2oc(-c3ccc(-c4ccccc4)cc3)nc2c1,5.77
12,Oc1ccc2occ(C(O)c3ccccc3)c2c1CN1CCOCC1 (centres unmarked),2.4
13,CC(C)c1ccc(NC(=O)Cc2ccc(-c3ccccc3)cc2)cc1,-2.36
14,CCOc1cccc(C(=O)Nc2nc3ccc(OCC)cc3s2)c1,2.92
15,COc1ccc(C(=O)N2CCc3ccccc32)cc1,1.7
16,Cc1ccc(-c2cc(C(=O)N3CCN(S(=O)(=O)c4c(C)nc(O)nc4O)CC3)[nH]n2)c(C)c1,2.75
17,NC(=O)Cn1cnc2c(nnn2-c2cccc(Cl)c2)c1=O,-2.16
18,COc1ccc(CC(=O)Nc2nc(-c3ccccc3)c(C)s2)cc1OC,-0.63
19,CSc1nc(C)cc(Oc2ccc(OCc3ccccc3)nn2)n1,-7.8
20,CC(C)C[C@H](NC(=O)c1ccc(-c2ccccc2F)cc1)C(=O)NCC#N,-6.46
21,CC(C)Cn1cc(NC(=O)N(Cc2ccco2)C2CCCCC2)c2ccccc2c1=O,-3.45
22,Cc1ccc(NC(=O)Cn2ncc3c(=O)oc4ccc(C)cc4c32)nc1,1.62
23,Cc1ccccc1OC(C)C(=O)Nc1cccc2cccnc12 (centres unmarked),-4.02
24,CC1=CC(c2ccc(C)cc2)C=C(c2ccc(C)cc2)O1 (centres unmarked),-3.41
25,CCN(CC)CCC(=O)c1ccc(O)cc1,3.18

row,SMILES,% Inhibition @ 10 uM [%]
1,Cc1ccc(N2CC(C(=O)Nc3cc(Cl)cc(Cl)c3)CC2=O)cc1 (centres unmarked),-4.33
2,COc1cc(S(=O)(=O)N2CCN=C2c2ccccc2)c(OC)cc1Cl,0.245
3,COc1ccc2oc(=O)c(-c3csc(NC4CCCCC4)n3)cc2c1,3.54
4,CCCc1cc(O)n2nc(Cc3ccccc3)c(-c3ccc(OC)cc3)c2n1,-3.77
5,O=C(c1ccc([N+](=O)[O-])cc1Cl)N(Cc1ccccc1)Cc1ccccc1,-7.28
6,Cn1c(=O)[nH]c(=O)c2c1nc(N1CCOCC1)n2CCCc1ccccc1,-1.07
7,O=C(Nc1ccccc1)C1(c2ccccc2)CCC(O)C1 (centres unmarked),-1.88
8,O=S(=O)(c1ccc(-c2ccc(O)nn2)o1)N1CCN(Cc2ccccc2)CC1,-7.36
9,CC1(C)CC(=O)c2c(O)c(-c3ccccc3)c(=O)n(-c3ccccc3)c2C1,-0.25
10,Cc1ccc(-n2nc3c(=O)n(CCCC(=O)N4CCc5ccccc5C4)nc(C)c3c2C)cc1,-6.53
11,CCOc1ccc(C(=O)n2nnc3ccccc32)cc1,6.59
12,NC(=O)c1c(NC(=O)Nc2cccc(Cl)c2)sc2c1CCCC2,0.13
13,N#Cc1ccccc1CSc1nc2ccccc2o1,3.31
14,O=S1(=O)C(/C=N/c2cccnc2)=C(O)c2sccc2N1Cc1ccccc1,8.83
15,CC1=C(C(=O)Nc2ccccc2)C(c2ccccc2)n2c(s/c(=C/c3cnn(C)c3C)c2=O)=N1 (centres unmarked),-3.03
16,Cc1nnc2c(N3CCOCC3)nc3ccccc3n12,6.83
17,CC1CCN(C(=O)c2ccc(C(C)(C)C)cc2)CC1,-1.56
18,Cc1ccc(CNC(=O)Cn2ncc3c4ccccc4n(Cc4ccccc4F)c3c2=O)cc1,4.95
19,CC(C)OCCCNC(=O)c1ccc(CS(=O)(=O)c2ccc(Cl)cc2)o1,-2.72
20,COCCCNC(=O)c1nnc(Cc2cccc(F)c2)o1,-7.32
21,COc1ccc(C2(C(=O)Nc3ccccc3OC)CCOCC2)cc1,-2.34
22,COc1ccc(C(=O)CCc2ccccc2O)c(OC)c1,-4.01
23,COc1ccc(/C=C(\NC(=O)c2ccccc2)C(=O)N2CC3CC(C2)c2cccc(=O)n2C3)cc1OC (centres unmarked),17
24,Cc1ccc(S(=O)(=O)/N=C2\C=C3N(CCO)CCOC3(O)c3ccccc32)c(C)c1 (centres unmarked),-5.38
25,CC[C@@H](C)[C@H](NC(=O)c1cccc(NC(N)=O)c1)C(=O)N[C@@H](CCc1ccccc1)C(=O)CO,-2.55

row,SMILES,% Inhibition @ 10 uM [%]
1,O=C(CCc1ccccc1)N1CCN(C(c2ccccc2)c2ccccc2)CC1,3.05
2,Cc1nn(-c2cccc(Cl)c2)c2nc(-c3ccncc3)cc(C(F)(F)F)c12,3.88
3,N#CCNC(=O)[C@H](CC1CCCCC1)NC(=O)OCc1ccccc1,-3.49
4,CCCn1c2ccccc2c2cnn(CC(=O)N(CCN(C)C)Cc3ccccc3)c(=O)c21,3.72
5,COc1cc(C2Nc3ccccc3N=C3CC(c4cccs4)CC(O)=C32)cc(OC)c1OC (centres unmarked),-2.45
6,CC(=O)Nc1ccc(NC(=O)CSCc2ccccc2Br)cc1,2.67
7,Cc1cc(C)c(S(=O)(=O)N(C)CC(=O)N2CCCC2)c(C)c1,4.44
8,Cc1ccc(OCC(=O)O/N=C(\N)Cc2ccc(Cl)cc2)cc1,-4.93
9,C=CCn1c(SCCC(C)C)nc2c1c(=O)[nH]c(=O)n2C,-6.38
10,O=C(NC(=O)C(F)(F)F)Nc1cccc2ccccc12,-7.32
11,Cc1c(C)n(Cc2ccc(F)cc2)c2ccc(C(=O)NC3CC3)cc12,4.44
12,Cc1ccc(C(=O)N(Cc2ccc(C)o2)C2CCS(=O)(=O)C2)cc1 (centres unmarked),-1.11
13,COC(=O)c1c(NC(=O)c2nc(S(C)(=O)=O)ncc2Cl)sc2c1CCCC2,0.569
14,COc1cccc(-c2ccc(C(=O)N[C@@H](CC(C)C)C(=O)NCC#N)o2)c1,-4.93
15,Cc1ccc(C(C)C)c(OCC(=O)Nc2ccc(S(=O)(=O)N3CCCC3)cc2)c1,-0.48
16,Brc1ccc(CN2CCN(C/C=C/c3ccccc3)CC2)s1,-0.969
17,CN1CCN(c2ncnc3onc(-c4cccc(Cl)c4)c23)CC1,1.15
18,COc1ccc(CNC(=O)Cc2c(C)c3cc(Cl)c(O)cc3oc2=O)cc1OC,5.68
19,COCc1cc(C)nc(SCC(=O)N2CCOCC2)c1C#N,2.48
20,O=C(C1CCN(S(=O)(=O)c2cc(Cl)ccc2Cl)CC1)N1CCCC1,-3.49
21,COc1ccc(C(=O)NCc2nc(-c3ccc(C)cc3)no2)c(OC)c1,-4.82
22,Cc1ccc(C2CC(C(F)F)n3ncc(C(=O)NCc4ccco4)c3N2)cc1 (centres unmarked),-0.28
23,Clc1ccc(N2CCCC3CCCCC32)nn1 (centres unmarked),-0.764
